Source: US7868037B2 (PTC Therapeutics, Inc., priority 2004, dated 2011)
Where two headings read alike, the source gives them in different places.

Test system: HCV replicon
Assay: microbe, parasite or virus in culture
Format: cell-based
Conditions: Hepatitis C virus
[1] = 48 h, read-out: Replicon IC50 μM 2-day
[2] = 72 h, read-out: Replicon IC50 μM 3-day

SMILES	IC50 [1]	IC50 [2]
CCOc1ccc2c(C#N)c(-c3ccc(NC(=O)OC(C)C4CC4)cc3)n(C3CCC3)c2c1 (racemic) [Compound 1147, rac-[4-(3-cyano-1-cyclobutyl-6-ethoxy-1H-indol-2-yl)-phenyl]-carbamic acid 1-cyclopropyl-ethyl ester]	< 0.5 µM	< 0.5 µM
CCCOC(=O)Nc1ccc(-c2c(C#N)c3ccc(OC)cc3n2CC)cc1F [Compound 877, [4-(3-cyano-1-ethyl-6-methoxy-1H-indol-2-yl)-2-fluorophenyl]-carbamic acid propyl ester]	0.5 to 2 µM	–
CCn1c(-c2ccc(NS(=O)(=O)CC)cc2)c(C#N)c2ccc(OC(F)(F)F)cc21 [Compound 881, ethanesulfonic acid [4-(3-cyano-1-ethyl-6-trifluoromethoxyindol-2-yl)phenyl]amide]	< 0.5 µM	< 0.5 µM
CCn1c(-c2ccc(N3CCCS3(=O)=O)cc2)c(C#N)c2ccc(OC(F)(F)F)cc21 [Compound 903, 2-[4-(1,1-dioxidoisothiazolidin-2-yl)phenyl]-1-ethyl-6-(trifluoromethoxy)indole-3-carbonitrile]	< 0.5 µM	–
C=CCn1c(-c2ccc(N3CCCC3=O)cc2)c(C#N)c2ccc(OC)cc21 [Compound 938, 1-allyl-6-methoxy-2-[4-(2-oxopyrrolidin-1-yl)-phenyl]-1H-indole-3-carbonitrile]	0.5 to 2 µM	–
CCn1c(-c2ccc(N3CCCS3(=O)=O)cc2)c(C#N)c2ccc(OC3CC3)cc21 [Compound 1046, 6-cyclopropoxy-2-[4-(1,1-dioxo-1λ^6-isothiazolidin-2-yl)-phenyl]-1-ethyl-1H-indole-3-carbonitrile]	< 0.5 µM	< 0.5 µM
CCn1c(-c2ccc(NC(=O)OC)cc2)c(C#N)c2ccc(OC(F)F)cc21 [Compound 1130, [4-(3-cyano-6-difluoromethoxy-1-ethyl-1H-indol-2-yl)-phenyl]-carbamic acid methyl ester]	0.5 to 2 µM	–
CCOc1ccc2c(C#N)c(-c3ccc(NC(=O)N4CCOCC4)cc3)n(C3CCC3)c2c1 [Compound 1166, morpholine-4-carboxylic acid [4-(3-cyano-1-cyclobutyl-6-ethoxy-1H-indol-2-yl)-phenyl]-amide]	0.5 to 2 µM	–
CCn1c(-c2ccc(NC(=O)C3CC3)cc2)c(C#N)c2ccc(OCCn3ccnc3)cc21 [Compound 1183, cyclopropanecarboxylic acid {4-[3-cyano-1-ethyl-6-(2-imidazol-1-yl-ethoxy)-1H-indol-2-yl]-phenyl}-amide]	< 0.5 µM	–
CCOc1ccc2c(C#N)c(-c3ccc(N(CC)CC)cc3)n(C3CCC3)c2c1 [Compound 1217, 1-Cyclobutyl-2-(4-diethylamino-phenyl)-6-ethoxy-1H-indole-3-carbonitrile]	0.5 to 2 µM	–
CCNc1ccc(-c2c(C#N)c3ccc(OCC)cc3n2C2CCC2)cc1 [Compound 1239, 1-cyclobutyl-6-ethoxy-2-(4-ethylaminophenyl)-1H-indole-3-carbonitrile]	< 0.5 µM	< 0.5 µM
CCOc1ccc2c(C#N)c(-c3ccc(N(CC)C(=O)OC4CCCC4)cc3)n(C3CCC3)c2c1 [Compound 1251, [4-(3-cyano-1-cyclobutyl-6-ethoxy-1H-indol-2-yl)-phenyl]-ethyl-carbamic acid cyclopentyl ester]	0.5 to 2 µM	–
CC(C)OC(=O)Nc1ccc(-c2c(C#N)c3ccc(OCCCn4cncn4)cc3n2C2CCC2)cc1 [Compound 1255, {4-[3-cyano-1-cyclobutyl-6-(3-[1,2,4]triazol-1-yl-propoxy)-1H-indol-2-yl]-phenyl}-carbamic acid isopropyl ester]	< 0.5 µM	< 0.5 µM
CC(C)OC(=O)Nc1ccc(-c2c(C#N)c3ccc(OCCn4cncn4)cc3n2C2CCC2)cc1 [Compound 1276, {4-[3-cyano-1-cyclobutyl-6-(2-[1,2,4]triazol-1-yl-ethoxy)-1H-indol-2-yl]-phenyl}-carbamic acid isopropyl ester]	–	< 0.5 µM
CC(C)NC(=O)Nc1ccc(-c2c(C#N)c3ccc(OCCCn4cncn4)cc3n2C2CCC2)cc1 [Compound 1314, 1-{4-[3-cyano-1-cyclobutyl-6-(3-[1,2,4]triazol-1-yl-propoxy)-1H-indol-2-yl]-phenyl}-3-isopropyl-urea]	–	< 0.5 µM
CC(OC(=O)Nc1ccc(-c2c(C#N)c3ccc(OCCn4cncn4)cc3n2C2CCC2)cc1)C1CC1 (stereo not drawn) [Compound 1329, {4-[3-cyano-1-cyclobutyl-6-(2-[1,2,4]triazol-1-yl-ethoxy)-1H-indol-2-yl]-phenyl}-carbamic acid 1-cyclopropyl-ethyl ester]	–	< 0.5 µM
